# Laboratory results from PubChem BioAssay AID588855 (National Center for Advancing Translational Sciences (NCATS), 2011).
# Values joined by “and” are separate entries in the source; they are usually repeats but may differ in a detail not shown here. Equal entries are not always repeated. About 5,000 (1.2%) of roughly 410,000 compounds were called active. The shares of active, inactive and inconclusive entries below differ from those in the screen. Calls come from the whole dose curve; as a rule, active = well fitted inhibition curve with a large enough effect; inconclusive = small, poorly fitted or top-dose-only effect; inactive = no such curve, though single readings can be large or run the other way. A potency beside an inconclusive call is a rough fit, not a confirmed value.
# Assay: qHTS for Inhibitors of TGF-b; note: nearly all actives have a fitted effect of over 65% in size
# Settings: HepG2 CAGA-GFP TGF-b/SMAD3 reporter, GFP fluorescence, 18 h, TGF-beta stimulated, 500 pg/mL final; series mostly up to 46.1 µM
# Method in brief: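 First, reporter cells (HEPG2 CAGA-GFP) rested 2 h at 37 degrees C. Next, compounds were pinned in and TGF-beta added to 500 pg/mL final. After 18 h, GFP was imaged per cell and summed per well.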
# Potency is the fitted concentration of half-maximal effect; tags give direction and shape of the fitted curve.
row,Structure (SMILES),Potency
1,CC(=O)c1ccc(OC(=O)CCc2nc3ccccc3s2)cc1,inactive
2,COC(=O)C1=C(C)NC(=S)NC1c1ccc(-c2cc(Cl)ccc2Cl)o1 (stereo not given),"inconclusive: 35.5 µM [inhibitor, single point]"
3,Cc1nc(N2CCN(c3ccccn3)CC2)c2c(C)c(C(=O)N3CCN(c4ccccc4F)CC3)sc2n1,inactive
4,CCN(CC)c1ccc(/C=C/c2ccccn2)cc1,inactive
5,O=C(Nc1ccccc1)Nc1nnc(SCC(=O)N2CCCCC2)s1,"inconclusive: 28.2 µM [inhibitor, single point]"
6,COc1ccc(CCNc2oc(Cc3cccc4ccccc34)nc2C#N)cc1OC,"inconclusive: 35.5 µM [inhibitor, single point]"
7,Cc1ccc(NC(=O)C2CCCN(S(=O)(=O)c3cccs3)C2)cc1 (stereo not given),inactive
8,Nc1ccc(S(=O)(=O)NCC(=O)OC2CCOC2=O)cc1[N+](=O)[O-] (stereo not given),"inconclusive: 1 µM [inhibitor, full curve, poor fit]"
9,N#Cc1cn(CCCOc2ccccc2)c2ccccc12,inactive
10,CC(C)(C)OC(=O)C[C@H]1C/C=C\C[C@@H](CC(=O)NCCO)C(=O)NC[C@H](c2ccccc2)OC1=O,inactive
11,CN1CCN(CCNC(=O)c2cnn(-c3ccc(F)cc3)c2C2CCN(C(=O)OC(C)(C)C)CC2)CC1,inactive
12,Fc1ccc(-c2nnc(CSc3nnc(-c4ccc5c(c4)OCO5)o3)o2)cc1,"inconclusive: 25.1 µM [inhibitor, single point]"
13,COc1ccc(-c2csc3ncnc(N4CCN(C(=O)c5ccco5)CC4)c23)cc1,"inconclusive: 5.62 µM [inhibitor, single point]"
14,COc1ccc(CC(=O)N(C)CC(=O)Nc2ccccc2SC)cc1,"inconclusive: 10 µM [inhibitor, partial curve, poor fit]"
15,CCc1cccc(CC)c1NC(=O)c1c(C)oc2ccc(O)c(CN3CCCC3)c12,inactive
16,CC(=O)Nc1ccc(S(=O)(=O)N2CCN(CCc3ccccc3)CC2)cc1,"inconclusive: 7.08 µM [inhibitor, partial curve, poor fit]"
17,Cc1ccc(N(CC(O)Cn2c3ccccc3c3ccccc32)S(C)(=O)=O)c(C)c1 (stereo not given),"inconclusive: 22.4 µM [inhibitor, single point]"
18,CCOc1c(C=C(C#N)C#N)c2ccccc2n1CC,"inconclusive: 35.5 µM [inhibitor, single point]"
19,COCCn1c(C)cc(/C=C2\NC(=S)N(C)C2=O)c1C,inactive
20,Cn1c(=O)c(C#N)c(-c2ccc(F)cc2)c2cc(C(=O)c3cc(Cl)cc(Cl)c3O)cnc21,active: 17.8 µM
21,Cc1ccccc1CN1C(=O)c2ccccc2Sc2ccc(C(=O)NCCc3ccccc3)cc21,"inconclusive: 3.16 µM [inhibitor, full curve]"
22,Cc1ccc(NC(=O)CSc2nc(N)cc(N)n2)cc1S(=O)(=O)N1CCOCC1,inactive
23,CCn1cc(C(=O)N2CCN(c3cccc(Cl)c3)CC2)c(=O)c2cc(S(=O)(=O)N3CCC(C)CC3)ccc21,active: 12.6 µM
24,CN(CCOc1ccccc1)C(=O)C1CCC(=O)N(CCN2CCOCC2)C1 (stereo not given),inactive

row,Structure (SMILES),Potency
1,O=C(NCCCN1CCN(c2cccc(Cl)c2)CC1)c1ccc2nc(Cc3ccccc3)oc2c1,"inconclusive: 17.8 µM [inhibitor, partial curve, poor fit]"
2,Nc1cc(Cl)ccc1C(=O)OCC(=O)N1CCOCC1,inactive
3,COc1ccc(NC(=O)c2cc(-c3ccccc3F)no2)cc1,inactive
4,O=C(Oc1c(Cl)cc(Cl)c2cccnc12)c1cccs1,active: 3.55 µM
5,CCCNC(=O)c1c(CSc2ccccc2)noc1C(=O)NCc1ccccc1,"inconclusive: 14.1 µM [inhibitor, single point]"
6,NC(COCc1ccccc1)c1csc(NC(=O)Nc2cccc(C(F)(F)F)c2)n1 (stereo not given),active: 14.1 µM
7,COc1ccc(C(=O)CSc2nnc(CN3CCCCC3)n2-c2ccc(F)cc2)cc1,"inconclusive: 8.91 µM [inhibitor, partial curve]"
8,Cc1nn2c(C)c(C(=O)N3CCN(c4ccc(Cl)cc4)CC3)cnc2c1-c1ccc(F)cc1,inactive
9,O=S(=O)(c1ccc(-c2cnc(C3CC3)o2)cc1)N1CCN(c2ccccc2F)CC1,"inconclusive: 12.6 µM [inhibitor, partial curve]"
10,CC(C)c1nnc(NC(=O)CSc2nnc(-c3ccco3)o2)s1,"inconclusive: 6.31 µM [inhibitor, single point]"
11,COc1cccc(CN2CC(C(=O)N3CCOCC3)CCC2=O)c1 (stereo not given),inactive
12,O=C(CCN1C(=O)c2ccccc2Sc2ncccc21)Nc1ccc(F)cc1,"inconclusive: 7.94 µM [inhibitor, partial curve]"
13,NC1(C(=O)O)CC1,inactive
14,O=C(Cn1c[n+](CC(=O)c2ccc([N+](=O)[O-])cc2)cn1)c1ccc([N+](=O)[O-])cc1,"inconclusive: 35.5 µM [inhibitor, single point]"
15,CCCCOc1ccccc1C1CC(=O)Nc2cc(C)c(C)cc21 (stereo not given),"inconclusive: 31.6 µM [inhibitor, single point]"
16,CCCCCCn1c(=O)[nH]c2c(c1=O)CCC2,inactive
17,O=C(NCC1CCCN1S(=O)(=O)c1cccs1)C(=O)Nc1ccccc1Cl (stereo not given),"inconclusive: 3.16 µM [inhibitor, partial curve, poor fit]"
18,CCOC(=O)c1c(NC(=O)c2ccc(S(=O)(=O)N(C)CC3CCCO3)cc2)sc2c1CCN(C)C2 (stereo not given),"inconclusive: 35.5 µM [inhibitor, single point]"
19,CCCOc1ccc(C2C(C(=O)OC)=C(C)N=C3SCCC(=O)N32)cc1OCC (stereo not given),"inconclusive: 1.12 µM [inhibitor, partial curve]"
20,O=C(CSc1ccc(-c2ccccc2)nn1)N1CCN(c2ccccc2)CC1,"inconclusive: 3.16 µM [inhibitor, single point]"
21,COc1cccc(-n2nc(C(=O)N3CC(C)CC(C)C3)c3ccccc3c2=O)c1 (stereo not given),inactive
22,COc1ccc(-c2cc(=O)c3c(O)c(OC)c(OC)c(OC)c3o2)cc1,"inconclusive: 3.55 µM [inhibitor, single point]"
23,CN1C(=O)c2ccc(C(=O)Nc3ccc(Br)cn3)cc2C1=O,inactive
24,COc1ccc(-c2cc3cc(OC)c(OC)cc3cn2)cc1,inactive

row,Structure (SMILES),Potency
1,Cc1ccc2c(C)c(C(=O)N3CCN(c4ncccn4)CC3)oc2c1C,"inconclusive: 25.1 µM [inhibitor, single point]"
2,C=C1CCN(C(CC(C)C)C(=O)Nc2nc3ccc(Cl)cc3s2)S(=O)(=O)c2ccccc21 (stereo not given),"inconclusive: 35.5 µM [inhibitor, single point]"
3,COc1cccc(-c2csc(N3CCN(C(=S)Nc4ccccc4)CC3)n2)c1,inactive
4,CC(C)(C)OC(=O)C[C@H]1C/C=C\C[C@H](CC(=O)N(CCO)Cc2ccccc2)C(=O)NC[C@H](c2ccccc2)OC1=O,inactive
5,O=S(=O)(c1ccccc1Br)N1CCC(O)(c2cccnc2)CC1,inactive
6,Cc1c(C(C)(C)O)[nH]c2ccc(C(F)(F)F)cc12,inactive
7,CCSc1nnc(NC(=O)[C@@H](NC(=O)c2ccc(C(C)(C)C)cc2)C(C)C)s1,"inconclusive: 35.5 µM [inhibitor, single point]"
8,O=C(CN1C(=O)C2CC=CCC2C1=O)NCc1ccc2c(c1)OCO2 (stereo not given),"inconclusive: 10 µM [inhibitor, partial curve, poor fit]"
9,Cn1c(=O)c2[nH]c(CN3CCN(Cc4ccccc4)CC3)nc2n(C)c1=O,"inconclusive: 1.26 µM [inhibitor, full curve, poor fit]"
10,CCOC(=O)N1C(=O)[C@](c2ccc(Cl)cc2)(C(C)C)N1C(=O)OCC,"inconclusive: 12.6 µM [inhibitor, partial curve]"
11,COC(=O)c1c(NC(=O)C2c3ccccc3Oc3ccccc32)sc2c1CCC(C(C)(C)C)C2 (stereo not given),inactive
12,O=C(Nc1ccc(C(=O)N2CCCCC2)cc1)c1cccc([N+](=O)[O-])c1,"inconclusive: 3.98 µM [inhibitor, single point]"
13,Cc1cc(C)n2nc(SCC(=O)N3CCCC3)nc2n1,inactive
14,COc1ccc(N=C2SC(CC(=O)Nc3ccccc3)C(=O)N2CCc2ccccn2)cc1 (stereo not given),"inconclusive: 35.5 µM [inhibitor, single point]"
15,N#CCC(=O)N/N=C/c1cn(Cc2ccc(Cl)c(Cl)c2)c2ccccc12,"inconclusive: 0.355 µM [inhibitor, full curve, poor fit]"
16,Cc1nc2cc(-c3cccc(F)c3)nn2c(C)c1CCC(=O)NC(C)c1ccccc1 (stereo not given),"inconclusive: 5.01 µM [inhibitor, full curve, poor fit]"
17,Cc1ccc(C)c(Nc2nc3ccccc3n3cnnc23)c1,"inconclusive: 31.6 µM [inhibitor, single point]"
18,CCOc1ccc(NC(=O)c2cnc3sc(N4CCOCC4)nn3c2=O)cc1,inactive
19,COC(=O)CCN(c1ccccc1)C(CNS(=O)(=O)c1ccccc1)c1ccccc1 (stereo not given),"inconclusive: 35.5 µM [inhibitor, single point]"
20,COc1cccc(C2c3[nH]c4ccccc4c3CCN2Cc2cccn2-c2ncccn2)c1 (stereo not given),"inconclusive: 35.5 µM [inhibitor, single point]"
21,O=C1CCN(CCc2ccccc2)CCN1[C@H](COc1ccccc1)Cc1ccccc1,"inconclusive: 11.2 µM [inhibitor, single point] and inconclusive: 25.1 µM [inhibitor, single point]"
22,CCOc1ccc(S(=O)(=O)N2CCN(Cc3nc4ccc(C)cc4o3)CC2)cc1,"inconclusive: 10 µM [inhibitor, partial curve, poor fit]"
